Out of some 370,000 compounds screened, about 150 (0.041%) were called active. Inconclusive means that the source gave no clear call. Such entries were picked first, then a sample of the others. Calls follow the shape of the dose curve; as a rule, active = well fitted inhibition curve with a large enough effect; inconclusive = small, poorly fitted or top-dose-only effect; inactive = flat fitted curve, though single readings scatter. Potencies of inconclusive entries are left out as doubtful fits.
What follows are molecules tested against Beta-lactamase (Escherichia coli (strain K12)) (UniProt P00811) (assay: qHTS Inhibitors of AmpC Beta-Lactamase (assay with detergent)). Conditions: AmpC hydrolysis of nitrocefin, absorbance 480 nm, 0.01% Triton; activity change, negative = inhibition: at 114 µM (top of the series).
Sequence of UniProt P00811 (P00811 whole entry, looked up): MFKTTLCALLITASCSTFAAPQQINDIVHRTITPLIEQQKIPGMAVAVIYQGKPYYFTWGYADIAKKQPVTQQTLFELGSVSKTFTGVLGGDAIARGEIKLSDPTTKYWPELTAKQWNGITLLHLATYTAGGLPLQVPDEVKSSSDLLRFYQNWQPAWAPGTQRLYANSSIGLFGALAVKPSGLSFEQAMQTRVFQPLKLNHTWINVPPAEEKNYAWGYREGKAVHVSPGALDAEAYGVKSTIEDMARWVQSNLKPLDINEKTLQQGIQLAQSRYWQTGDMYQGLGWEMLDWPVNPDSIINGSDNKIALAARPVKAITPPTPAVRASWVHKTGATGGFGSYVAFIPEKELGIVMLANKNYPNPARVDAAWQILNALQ
How it was run: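 20 mM phosphate pH 7.0 + 0.01% (detergent screen) or 0.0001% Triton X-100; 5.3 nM AmpC reagent; cpd preinc 15 min RT; nitrocefin (800 uM stock) to start; A480 q20 s × 4 min; Activity was normalised to no-enzyme and no-compound control wells.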
Also: nearly all actives have a fitted effect of over 25% in size.
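For activity change, negative = inhibition in this document: 0% = no-compound wells and -100% = no-enzyme wells.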
Potency is read from the fitted curve at half-maximal effect; tags tell the direction and shape of the fitted curve.

| SMILES | Potency | activity change, negative = inhibition |
| --- | --- | --- |
| COc1ccc(Cl)cc1NC(=O)CN(C)CC(=O)Nc1ccc2c(c1)OCO2 | inconclusive [inhibitor, full curve] | – |
| COc1ccc(N(CC(O)Cn2c(C)nc3ccccc32)S(=O)(=O)c2ccc(C)cc2)cc1 (configuration not stated) | inconclusive [inhibitor, full curve, poor fit] | – |
| CCCCn1c(SCC(=O)NCc2ccccc2)nc2ccc(N3CCOCC3)cc2c1=O | – | inactive: -13.6% |
| CCN1C2=C(C(=O)CCC2)C(c2ccc(O)cc2)C2=C1CCCC2=O | inconclusive [inhibitor, full curve] | – |
| N#CCC(=O)c1ccccc1Oc1ccc(Cl)cc1 | inconclusive [inhibitor, partial curve] | – |
| CCOC(=O)c1c(NC(=O)c2c(-c3ccccc3)noc2C)sc(C)c1-c1ccccc1 | – | inactive: -1.44% |
| CCN(CC)C1CC(=O)N(c2cccc(Cl)c2)C1=O (configuration not stated) | – | inactive: -7.84% |
| O=C(Nc1ccc(Cl)cc1)Nc1cnccn1 | – | inactive: -4.03% |
| CCCCOc1ccc(C(=O)NCC(=O)N2CCN(Cc3ccc4c(c3)OCO4)CC2)cc1 | – | inactive: 12.7% |
| Cc1[nH][nH]c(=O)c1/C=N/N1CCOCC1 | inconclusive [inhibitor, partial curve, poor fit] | – |
| CC(C)Cn1c(CNC(=O)c2ccccc2)nc2ccccc21 | – | inactive: 1.38% |
| COc1ccc(-n2c(NN)nc3sc4c(c3c2=O)CCCC4)cc1 | inconclusive [inhibitor, full curve] | – |
| CS(=O)(=O)N1CCN(c2ccccc2NC(=O)Nc2cccc(Cl)c2)CC1 | inconclusive [inhibitor, partial curve, poor fit] | – |
| CCN(CC)C(=O)/C(=C\c1cccc([N+](=O)[O-])c1)NC(=O)c1ccco1 | inconclusive [inhibitor, full curve, poor fit] | – |
| O=C(Oc1ccc(-c2cnc3ccccc3n2)cc1)c1ccco1 | inconclusive [inhibitor, full curve, poor fit] | – |
| COc1ccc(CCC(=O)Nc2nc3c(s2)CN(C)CC3)cc1OC | inconclusive [inhibitor, full curve, poor fit] | – |
| CCCS(=O)(=O)N1CCC(C(=O)N2CCC3(CC2)OCCO3)CC1 | – | inactive: -0.294% |
| O=C1CSC(=S)N1 | inconclusive [inhibitor, partial curve, poor fit] | – |
| CCOC(=O)C1CCCN(C/C(O)=C(\C#N)c2nc(-c3ccc(Cl)cc3)cs2)C1 (configuration not stated) | inconclusive [inhibitor, full curve, poor fit] | – |
| CC(C)(C)NC(=O)C(c1ccco1)N(C(=O)c1ccc(CN2CCOCC2)o1)c1ccccc1 (configuration not stated) | inconclusive [inhibitor, full curve, poor fit] | – |
| CCOc1cc2[nH]c(=O)n(CCCC(=O)N3CCN(c4cccc(Cl)c4)CC3)c(=O)c2cc1OCC | inconclusive [inhibitor, single point] | – |
| CC1CCCN(C2=C(NS(=O)(=O)c3ccc(Br)cc3)C(=O)c3ccccc3C2=O)C1 (configuration not stated) | inconclusive [inhibitor, partial curve] | – |
| CCCN(CCC)CCNC(=O)C1CCCN(S(=O)(=O)c2cccc3nsnc23)C1 (configuration not stated) | – | inactive: 1.17% |

| SMILES | Potency | activity change, negative = inhibition |
| --- | --- | --- |
| C#CCN1C(=O)C(O)(CC(=O)c2cccc(OC)c2)c2ccccc21 (configuration not stated) | – | inactive: -10.4% |
| O=C(Nc1ccccc1)N1CCC(C(=O)N2CCN(S(=O)(=O)c3cccc(F)c3)CC2)CC1 | inconclusive [inhibitor, full curve, poor fit] | – |
| Cc1ccc(N=C(N(C)C)P(=O)(N(C)C)N(C)C)c(C)c1 | inconclusive [inhibitor, full curve, poor fit] | – |
| COC(=O)C(C)N(C#N)c1nc(C)cc(C)n1 (configuration not stated) | inconclusive [inhibitor, full curve, poor fit] | – |
| Cc1ccc(C2C3=C(CCCC3=O)Nc3[nH]c(=S)[nH]c(=O)c32)cc1 (configuration not stated) | inconclusive [inhibitor, single point] | – |
| Clc1ccccc1N=C1NN=C(c2cccs2)CS1 | – | inactive: 6.94% |
| Cc1ccc(NC(=O)CCNS(=O)(=O)c2ccc(Br)cc2)cc1S(=O)(=O)N1CCOCC1 | inconclusive [inhibitor, full curve, poor fit] | – |
| Cc1ccc(C(=O)N/C(=C/C=C/c2ccccc2)C(=O)NCc2ccco2)cc1 | inconclusive [inhibitor, single point] | – |
| CCOc1cc(CNCCCN2CCOCC2)cc(Cl)c1OCC(=O)NC(C)(C)C | – | inactive: 3.64% |
| CCCOc1ccc(NC(=O)C2CC(=O)N/C(=N/N=C(C)/C=C/c3ccc(N(C)C)cc3)S2)cc1 (configuration not stated) | – | inactive: -6.82% |
| O=C(CCC(=O)OCC(F)(F)C(F)F)Nc1ccc(Cl)cc1 | inconclusive [inhibitor, full curve, poor fit] | – |
| Cc1cc(C)c(NC(=S)N(Cc2cccnc2)Cc2ccco2)c(C)c1 | inconclusive [inhibitor, full curve, poor fit] | – |
| CCc1cc2c(-c3ccccc3)cc(=O)oc2cc1OC(=O)c1cccs1 | inconclusive [inhibitor, single point] | – |
| COc1ccc(Nc2nc(CC(C)=O)ns2)cc1 | inconclusive [inhibitor, full curve, poor fit] | – |
| Cc1ccc(OC(=O)CCC(=O)N2CCc3ccccc32)cc1 | inconclusive [inhibitor, full curve, poor fit] | – |
| Cc1ccc(NC(=O)c2cncc(Br)c2)nc1 | inconclusive [inhibitor, partial curve] | – |
| Cc1cc(C(=O)OCC(=O)NC2CCCCC2)c(C)o1 | inconclusive [inhibitor, partial curve, poor fit] | – |
| O=C(CN1c2cccc3cccc(c23)S1(=O)=O)N1CCOCC1 | inconclusive [inhibitor, full curve, poor fit] | – |
| CC1CCCCN1CCCn1c(=S)[nH]c2ccccc2c1=O (configuration not stated) | inconclusive [inhibitor, partial curve] | – |
| COC(=O)c1cc(OC)nc(OC)c1 | inconclusive [inhibitor, single point] | – |
| Cc1cccc2c(N=Nc3ccccc3)c(O)[nH]c12 | – | inactive: 6.32% |
| Cn1ncc(Cl)c1C(=O)Nc1ccc(Cl)cn1 | inconclusive [inhibitor, full curve] | – |
| c1cncc(C(c2nnnn2C2CCCC2)N2CCCC2)c1 (configuration not stated) | inconclusive [inhibitor, partial curve] | – |

| SMILES | Potency | activity change, negative = inhibition |
| --- | --- | --- |
| Cc1cccc(C)c1NC(=O)CSCCO | inconclusive [inhibitor, full curve, poor fit] | – |
| O=C(NCCc1cccc(Cl)c1)c1cccc(-n2cnnn2)c1 | inconclusive [inhibitor, partial curve, poor fit] | – |
| N#C/C(=C\c1c[nH]c2ccccc12)C(=O)NC1CC1 | inconclusive [inhibitor, full curve, poor fit] | – |
| S=C(c1ccccc1)N1CCN(C(=S)c2ccccc2)CC1 | inconclusive [inhibitor, full curve] | – |
| CC(C)[C@H](NC(=O)N1CC(=O)Nc2ccccc21)C(=O)N[C@@H](Cc1ccccc1)C(=O)O | inconclusive [inhibitor, full curve] | – |
| COc1cccc(/C=C2\N=C(c3cncc(Br)c3)OC2=O)c1 | – | inactive: -14.8% |
| CC(=O)OC[C@H]1O[C@H](C/C=N/O[C@@H](C)c2cn([C@H](CO)Cc3ccccc3)nn2)C=C[C@@H]1OC(C)=O | inconclusive [inhibitor, full curve, poor fit] | – |
| Cc1ccc(-n2ncc3c2CC(C)(C)CC3NC(=O)CCCN2CCCC2=O)cc1 (configuration not stated) | – | inactive: -2.44% |
| O=C1Nc2cc(C(=O)N3CCN(c4ccccc4F)CC3)ccc2NC1CSCc1ccccc1F (configuration not stated) | inconclusive [inhibitor, full curve] | – |
| CCC1(CC)N=C(c2ccccc2)C(=S)N1 | inconclusive [inhibitor, single point] | – |
| CC(C)CC(=O)/C=C/n1c(=S)oc2ccccc21 | inconclusive [inhibitor, full curve] | – |
| Cc1cccc(C)c1NC(=O)CN(C)C(=O)CSCc1c(C)noc1C | inconclusive [inhibitor, partial curve] | – |
| CCC1(c2ccccc2)NC(=O)N(CC(=O)NNC(=O)c2ccoc2C)C1=O (configuration not stated) | inconclusive [inhibitor, partial curve, poor fit] | – |
| COc1ccccc1NC(=O)CN1CC(=O)Nc2ccccc21 | inconclusive [inhibitor, full curve] | – |
| Cc1ccc(N=Nc2c(O)ccc3n[nH]nc23)cc1 | – | inactive: -7.76% |
| O=C(CN1C(=O)NC2(CCCC2)C1=O)Nc1ccc(F)cc1 | inconclusive [inhibitor, partial curve, poor fit] | – |
| COC(=O)c1ccccc1Sc1snnc1C | inconclusive [inhibitor, single point] | – |
| CCOC(=O)C1=C(C)C/C(=N\NC(=O)c2ccccc2O)CC1 | – | inactive: -1.61% |
| O=c1c2ccccc2sc2nc(C3CCCCC3)n(Cc3ccco3)c(=O)c12 | – | inactive: -0.0441% |
| CCC(=O)N1CCc2cc(Br)cc(S(=O)(=O)NCC3CCCN3CC)c21 (configuration not stated) | inconclusive [inhibitor, full curve] | – |
| Cc1nnc(SCC(=O)Nc2ccccc2)n1CCc1ccccc1 | inconclusive [inhibitor, full curve, poor fit] | – |

Reference: PubChem BioAssay AID485294 (National Center for Advancing Translational Sciences (NCATS), 2010)
